Measurements as given in PubChem BioAssay AID1468 (National Center for Advancing Translational Sciences (NCATS), 2008).
In all, about 280,000 compounds went through this assay and about 1,100 (0.39%) were called active. Inconclusive means that the source gave no clear call. Such entries were picked first, then a sample of the others. Calls come from the whole dose curve; as a rule, active = well fitted inhibition curve with a large enough effect; inconclusive = small, poorly fitted or top-dose-only effect, or effect the other way; inactive = flat fitted curve, though single readings scatter. Potencies of inconclusive entries are left out as doubtful fits.

These compounds were tested against Microtubule-associated protein tau (Homo sapiens) (UniProt P10636) (assay: qHTS for Inhibitors of Tau Fibril Formation, Fluorescence Polarization). Settings: K18 P301L tau heparin fibrillization, Alexa594 FP, 6 h; series mostly up to 57.7 µM.
Sequence of UniProt P10636 (P10636 whole entry, looked up): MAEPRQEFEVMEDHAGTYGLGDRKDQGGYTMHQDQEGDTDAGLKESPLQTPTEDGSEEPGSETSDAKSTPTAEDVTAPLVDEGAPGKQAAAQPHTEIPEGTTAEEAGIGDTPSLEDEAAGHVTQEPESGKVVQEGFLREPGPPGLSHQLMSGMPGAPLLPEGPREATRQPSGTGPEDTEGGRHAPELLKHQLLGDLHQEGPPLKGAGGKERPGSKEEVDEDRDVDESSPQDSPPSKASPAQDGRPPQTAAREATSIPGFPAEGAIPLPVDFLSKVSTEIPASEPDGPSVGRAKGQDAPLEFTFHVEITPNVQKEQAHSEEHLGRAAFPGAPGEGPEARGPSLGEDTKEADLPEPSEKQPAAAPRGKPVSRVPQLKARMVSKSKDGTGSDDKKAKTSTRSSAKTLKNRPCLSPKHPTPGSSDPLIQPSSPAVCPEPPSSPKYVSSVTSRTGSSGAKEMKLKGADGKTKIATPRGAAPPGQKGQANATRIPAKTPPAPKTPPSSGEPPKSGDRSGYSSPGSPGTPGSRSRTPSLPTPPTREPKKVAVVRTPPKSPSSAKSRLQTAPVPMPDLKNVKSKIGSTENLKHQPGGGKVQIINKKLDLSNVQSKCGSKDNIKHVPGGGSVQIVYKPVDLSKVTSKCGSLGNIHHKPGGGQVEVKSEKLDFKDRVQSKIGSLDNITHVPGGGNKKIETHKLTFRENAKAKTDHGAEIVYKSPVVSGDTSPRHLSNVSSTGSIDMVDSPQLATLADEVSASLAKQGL
Procedure, shortened: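 Quantitative HTS format: compounds meet 15 uM recombinant K18 P301L tau and Alexa 594-tau tracer in 100 mM sodium acetate pH 7; 20 uM heparin triggers fibrillization at 37 C over 6 hr; FP gives the signal.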
% is set by controls: 0 for no effect and ±100 for the full control effect; potency is the fitted concentration of half-maximal effect; tags give direction and shape of the fitted curve.
Note: nearly all actives have a fitted effect of over 55% in size.

Row | SMILES | Potency | activity, negative = inhibition
1 | Cc1ccc(NC(=O)C2CCCN(c3ncnc4onc(C)c34)C2)c(Cl)c1 (stereo not drawn) | inactive | 
2 | Cc1nn(-c2ccccc2)c2c1C1(C(=O)Nc3ccccc31)N1C(=N2)Sc2ccccc21 (stereo not drawn) | inconclusive [inhibitor, partial curve, poor fit] | 
3 | CCOc1ccc(NC(=O)Nc2ccc(Cc3ccncc3)cc2)cc1 | inconclusive [activator, full curve] | 
4 | NC(=O)c1ccc(Oc2ccc(Cl)c3ccccc23)c([N+](=O)[O-])c1 | inconclusive [inhibitor, single point] | 
5 | CN(C)S(=O)(=O)c1ccc(C(=O)NCCSc2c(-c3ccc(Br)cc3)[nH]c3ccccc23)cc1 | inconclusive [inhibitor, single point] | 
6 | CCCCNC(=O)CC1Nc2cc(C)c(C)cc2NC1=O (stereo not drawn) | inactive | 
7 | Cc1c(Cl)cccc1N1CCn2c1nc1c2c(=O)n(CC(=O)O)c(=O)n1C | inactive | 
8 | COc1ccc(S(=O)(=O)/N=C2/NC(=O)/C(=C/c3ccco3)S2)cc1 | inconclusive [inhibitor, partial curve, poor fit] | 
9 | CNC(=O)COC(=O)/C=C/c1cn(-c2ccccc2)nc1-c1ccc(C)o1 | inconclusive [inhibitor, single point] | 
10 | COc1ccc(CNc2nc(-c3ccccc3)nn2C(=O)c2cccs2)cc1 | inconclusive [inhibitor, partial curve] | 
11 | Cc1ccc(C)c(NC(=O)COC(=O)c2cccc3c2C(=O)c2ccccc2C3=O)c1 | inconclusive [activator, partial curve, poor fit] | 
12 | CC1CN(C(=O)Nc2ccc(C(=O)NCc3ccccc3F)cc2)c2ccccc2S1 (stereo not drawn) | inconclusive [inhibitor, single point] | 
13 | N#CC1=C(SCc2ccc(C#N)cc2)N=C(N)C(c2nc(-c3ccccc3)cs2)C12CCCCC2 (stereo not drawn) | inconclusive [inhibitor, partial curve] | 
14 | CCSc1ncc(/C=N/Nc2ccccc2)n1C | inconclusive [activator, full curve, poor fit] | 
15 | CCOC(=O)Cc1csc(NC(=O)CCC(=O)O)n1 | inactive | 
16 | CCOC(=O)c1ccc(N2C(=O)c3n[nH]c(-c4ccco4)c3C2c2ccc(OC)cc2OC)cc1 (stereo not drawn) | inconclusive [inhibitor, partial curve] | 
17 | CC(=O)c1ccc(NC(=O)Nc2ccc3snnc3c2)cc1 | inconclusive [inhibitor, partial curve] | 
18 | Cc1nnc(N2C(=O)C(O)=C(C(=O)c3ccco3)C2c2ccc(C(C)(C)C)cc2)s1 (stereo not drawn) | inconclusive [inhibitor, single point] | 
19 | NNC(=O)c1cc(-c2ccc(N)cc2)nc2ccc(Br)cc12 | inconclusive [activator, single point] | 
20 | CCC(C)NC(=O)c1ccc(C2SCC(=O)N2Cc2ccccc2)cc1 (stereo not drawn) |  | inactive: 5.8% [at 2.34 µM]
21 | COc1ccc(/C(C)=N/OCC(=O)N=Nc2c(O)[nH]c3ccc(Br)cc23)cc1 | inconclusive [inhibitor, single point] | 
22 | COc1ccc(C2CC(C(F)(F)F)n3nc(C(=O)NCc4c(C)nn(C)c4C)c(Cl)c3N2)cc1 (stereo not drawn) | inactive | 

Row | SMILES | Potency | activity, negative = inhibition
23 | O=C(NCCc1ccc(Cl)cc1)c1cc(-c2ccccc2)n[nH]1 | inconclusive [inhibitor, single point] | 
24 | COc1cccc(C(=O)Nc2ccc(Oc3cccc(C(F)(F)F)c3)nc2)c1 | inconclusive [inhibitor, single point] | 
25 | O=C(CN(C(=O)CCC(=O)Nc1nccs1)c1ccc2c(c1)OCO2)NCC1CCCO1 (stereo not drawn) | inconclusive [activator, single point] | 
26 | COc1ccc(NC(=O)COC(=O)c2ccc(NS(=O)(=O)/C=C/c3ccccc3)cc2)cc1 | inconclusive [inhibitor, partial curve] | 
27 | CCN(CC)S(=O)(=O)c1ccc(/C=C/C(=O)Nc2ccc(Br)cc2F)cc1 | inconclusive [inhibitor, partial curve] | 
28 | COc1cc2nc(N(C)CCCNC(=O)C3CCCO3)nc(N)c2cc1OC (stereo not drawn) | inactive | 
29 | Cc1ccc(S(=O)(=O)N/N=C\c2ccc([N+](=O)[O-])o2)cc1 | inconclusive [inhibitor, single point] | 
30 | Cc1cc(C(=O)CSc2n[nH]c(N)n2)c(C)n1C1CC1 | inactive | 
31 | COc1ccc2c(c1)Cc1sc(NC(=O)c3ccccc3C)nc1-2 | inactive | 
32 | N#CC1=C(N)Oc2n[nH]c(-c3cccs3)c2C1c1ccoc1 (stereo not drawn) | inconclusive [inhibitor, single point] | 
33 | Cc1cccc(NC(=O)c2cc(NC(=O)c3ccco3)ccc2Cl)n1 | inactive | 
34 | Clc1ccc(Cn2c(CN3CCCC3)nc3ccccc32)cc1 | inconclusive [inhibitor, single point] | 
35 | NC(=O)c1ccsc1N | active: 31.6 µM | 
36 | Cc1cccc(C(=O)Oc2ccccc2/C=N/NC(=O)c2ccc(NC(=O)C(C)(C)C)cc2)c1 | inconclusive [inhibitor, partial curve] | 
37 | Cc1ccc(/C=N/N2C(=S)SC(C)(C)C2N(O)C(=O)Nc2ccc([N+](=O)[O-])cc2)cc1 (stereo not drawn) | inconclusive [inhibitor, single point] | 
38 | CC(C)(C)OC(=O)N/N=C/c1ccc(Br)cc1 | inactive | 
39 | O=C(CCn1cnc2onc(-c3ccc(F)cc3)c2c1=O)Nc1ccc(F)c(Cl)c1 | active: 28.2 µM | 
40 | CC(/C=C/c1ccco1)=N\NC(=O)c1cccnc1 | inconclusive [inhibitor, partial curve] | 
41 | O=C(Nc1ccc(OCc2cc(=O)n3c4c(sc3n2)CCCC4)cc1)c1cccc(F)c1 | inactive | 
42 | CCOC(=O)c1sc2nc3c(SCCC#N)cc(C(=O)c4cc(F)ccc4O)cn3c(=O)c2c1C | inactive | 
43 | COC(=O)c1sc2cccc(F)c2c1S(=O)(=O)N1CCN(c2cccc(OC)c2)CC1 | inactive | 
